Measurements as given in patent US20260258111A1 (SUZHOU YOUTHEN BIOTECHNOLOGY, published 2026).
Where a chain is given by its changes, count along the chain named.

Legend:
[1] = molecular target: T1, TRAIL (Novoprotein Scientific Inc.) (UniProt P50591 114-281, limits assumed); assay: cell-based or functional assay
human TRAIL = molecular target: T2, human TRAIL (human, UniProt P50591 114-281, limits assumed); assay: Biacore (SPR), fusion protein as ligand, hTRAIL
T2 construct: also called hTRAIL; TRAIL molecule

[2] = molecular target: T1, TRAIL (Novoprotein Scientific Inc.); assay: cell-based or functional assay; remark: listed apart in the source
T1 sequence (P50591 114-281 limits assumed): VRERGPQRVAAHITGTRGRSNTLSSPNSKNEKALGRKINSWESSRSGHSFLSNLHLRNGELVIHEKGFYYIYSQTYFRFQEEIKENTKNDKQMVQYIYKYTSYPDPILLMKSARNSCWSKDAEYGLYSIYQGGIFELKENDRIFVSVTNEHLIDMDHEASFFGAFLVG

human TRAIL, sequence (P50591 114-281 limits assumed): as above

B1: YF01M3 (Fc fusion)
chain: ITQQDLAPQQRAAPQQKRSSPSEGLCPPGHHISEDGRDCISCKYGQDYSTHWNDLLFCAACTRCDSGEVELSPCTTTRNTVCQCEEGTFREEDSPEMCRKCRTGCPRGMVKVGDCTPWSDIECVHKEEF[no letters for human IgG1 Fc]
notes: also called M3 fused with human IgG1-Fc; M3-1 (probably)
apoptosis rate (%) of Jurkat cells with 200 ng/ml TRAIL plus fusion protein (0.125 mg/ml per paragraph 187); TRAIL alone 18.42, Normal 2.57 [1]: 9.39% | koff (human TRAIL): 8.35e-05 s⁻¹

B2: YF01M5 (Fc fusion)
chain: B1 chain with A59L, A60R, R99A, K100A
notes: also called M5 fused with human IgG1-Fc
Kd (human TRAIL): 329 pM | koff (human TRAIL): 0.000131 s⁻¹

B3: YF01M3G1m (Fc fusion)
chain: ITQQDLAPQQRAAPQQKRSSPSEGLCPPGHHISEDGRDCISCKYGQDYSTHWNDLLFCAACTRCDSGEVELSPCTTTRNTVCQCEEGTFREEDSPEMCRKCRTGCPRGMVKVGDCTPWSDIECVHKEEF[no letters for human IgG1 Fc with D265A (EU numbers)]
apoptosis rate (%) of Jurkat cells with 200 ng/ml TRAIL plus fusion protein (0.125 mg/ml per paragraph 187); TRAIL alone 18.42, Normal 2.57 [1]: 9.83%

B4: YF01M3G4 (Fc fusion)
chain: ITQQDLAPQQRAAPQQKRSSPSEGLCPPGHHISEDGRDCISCKYGQDYSTHWNDLLFCAACTRCDSGEVELSPCTTTRNTVCQCEEGTFREEDSPEMCRKCRTGCPRGMVKVGDCTPWSDIECVHKEEF[no letters for human IgG4 Fc with S228P (EU numbers)]
apoptosis rate (%) of Jurkat cells with 200 ng/ml TRAIL plus fusion protein (0.125 mg/ml per paragraph 187); TRAIL alone 18.42, Normal 2.57 [1]: 9.45%

B5: YF01M63 (Fc fusion)
chain: B1 chain with A59V, A60V
apoptosis rate (%) of Jurkat cells with 200 ng/ml TRAIL plus fusion protein; TRAIL alone 27.2, Normal 3.86 [2]: 8.51%

B6: YF01M65 (Fc fusion)
chain: B1 chain with A59S, A60S
apoptosis rate (%) of Jurkat cells with 200 ng/ml TRAIL plus fusion protein; TRAIL alone 27.2, Normal 3.86 [2]: 6.88%

B7: YF01M14 (Fc fusion)
chain: B1 chain with I32L, D35S, T50N, D54H, A59L, A60R, D93N
apoptosis rate (%) of Jurkat cells with 200 ng/ml TRAIL plus fusion protein; TRAIL alone 27.2, Normal 3.86 [2]: 13.6%

B8: YF01M16 (Fc fusion)
chain: B1 chain with I32A, D35S, T50N, D54S, A59V, A60R, E92S
apoptosis rate (%) of Jurkat cells with 200 ng/ml TRAIL plus fusion protein; TRAIL alone 27.2, Normal 3.86 [2]: 13.8%

B9: YF01M36 (Fc fusion)
chain: B1 chain with I32A, E34Q, D35S, T50S, D54S, A59V, A60R, D93K
apoptosis rate (%) of Jurkat cells with 200 ng/ml TRAIL plus fusion protein; TRAIL alone 27.2, Normal 3.86 [2]: 8.1%
